Measurements from a collection of fitness landscapes (doi:10.1016/j.celrep.2020.107928).
The full ranking holds about 81,000 sequences; the median of “one-hybrid fitness for binding NBS DNA” is about -0.1, and the highest 2% start at about 0.36. Some of the results follow.

B1: Caulobacter ParB omega fusion; a variant is named by its letters at X, in order, B8GW30 (parent)
chain: MESVVVGEPGMSEGRRGLGRGLSALLGEVDAAPAQAPGEQLGGSREAPIEILQRNPDQPRRTFREEDLEDLSNSIREKGVLQPILVRPSPDTAGEYQIVAGERAWRAAQRAGLKTVPIMVRELDDLAVLEIGIIENVQRADLNVLEEALSYKVLMEKFERTQENIAQTIGKSXSHVANXMRLLXLPDEVQSYLVSGELTAXHARAIAAAADPVALAKQIIEGGLSVRETEALARKAPNLSAGKSKGGRPPRVKDTDTQALESDLSSVLGLDVSIDHRGSTGTLTITYATLEQLDDLCNRLTRGI

Variants of: B1
Test: one-hybrid fitness for binding NBS DNA (the Noc-binding site; scaled: cognate 1, non-cognate 0); higher = stronger binding
Conditions: with NBS DNA site
Summary of the method: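 Values were rescaled so that cognate is 1 and non-cognate is 0. Each is a fitness, the log change in a variant's read ratio to wild type from Illumina reads of plasmids before and after selection, with three replicate libraries pooled and variants under 10 reads dropped. Selection of the Caulobacter ParB libraries, four specificity codons randomised, used E. coli USO with a HIS3 reporter, site 19 bp from the promoter, on M9-minus-histidine with 0.1 mM IPTG and 5 mM 3-AT for 48 hours at 37°C.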

one-hybrid fitness for binding NBS DNA, 0.239:
QTAC

one-hybrid fitness for binding NBS DNA, 0.208:
QLTA

one-hybrid fitness for binding NBS DNA, 0.301:
RYRY

one-hybrid fitness for binding NBS DNA, 0.651:
RTKH

one-hybrid fitness for binding NBS DNA, 0.742:
QCHR

one-hybrid fitness for binding NBS DNA, 0.405:
RAST

one-hybrid fitness for binding NBS DNA, 0.243:
KLKT

one-hybrid fitness for binding NBS DNA, ≤ 0.2:
LQTL
KAHC
QWAC
QCNW
IYEV
MLVW
RGLR
QFNT
QIAG
SHHG
SSHK
VRDK
AVVS
TYIC
VVVG
NCME
NWSS
QPSM
GTVT
VHEL
NKYM
WLWM
LVQA
IVGW
IMAR
PVEI
VLYT
GTQV
APIP
EFRN
NFRK
NFVS
VFEG
FLQC
ECRK
LGDC
AVLI
WHSC
GGMC
VLHR
NHKF
NPYG
THCV
AYLT
VCQT
HLRE
DPHL
EVTY
MANL
QNLS
SIGR
RTPG
WFRT
PYCT
NINR
CRYE
RCCG
WVFR
MYCF
NARI
LHQR
WTCS
LPLL
TSSA
PKSM
PRRN
MPEV
DTKL
SRIM
QWDR
AIHE
KVKQ
NVYS
IIEL
CMAC
NLCG
RQWC
CTGT
HNTR
FQRV
GLHT
HRGL
TQYM
YTVS
PRKD
IAMY
NAIS
PDSR
DVES
KHSG
MSHG
YSGC
EYTS
CITI
RFRH
VSWK
HIGV
SRHT
PHQM
QHYH
RIEP
QYYG
KPER
YKRC
CLTR
RQME
VCKC
EESG
RCPE
AASW
TLYM
HKKR
NWKY
GSFH
DFYT
TYYS
HGPA
NYRG
MSNM
TCAL
ESQG
KHQE
TTIG
IGSG
SNMT
FSYC
CWTQ
RTMW
DAGC
IYHG
RPVY
NCCT
DTDV
QMTI
PMAL
RSSN
RKQG
QSTK
PKVL
CPCM
NSYT
MPPT
YMLS
QNSK
TAPR
RCLD
YDFC
TNML
RVNV
TNDK
QVPW
DRGG
DVGS
RYEL
AHNC
TPCR
GRRM
TLPS
NKQG
DPVS
GWSK
AERL
EFKT
SSEM
PIDQ
WFRR
KGST
YIHR
PQEW
PWPY
TWSR
PRCL
TYGV
YDTQ
IAET
GNNR
FTSC
NYHC
TIQC
KTKK
QPVA
HVPT
SSRP
TISP
KHNT
CKYT
NCGG
AHRC
DRQL
PDTG
QPYA
PQIE
PYLG
MVPG
QYNV
PGGR
DTFF
TFLI
HAKM
PIDR
KDEM
GDEG
VEQK
PSRP
EKKS
RCLG
PDQA
AFRR
VRNF
AGSS
QICL
YWKR
LEAD
TKEV
TTRM
NAGL
SLAN
KPPS
HPWL
HVAF
TNVC
RQAH
RDRS
NKLG
EMNA
LRNC
QLLH
QCLF
KVAC
SHLD
NKGG
AHEC
TISL
KRQC
QQSG
CEEG
GMGC
WYHR
AKWQ
YNPR
LRPD
VHHL
PVHW
ITGH
QLSP
MHRD
RWLC
YKTF
CDRG
HCTT
KQKI
FHRR
HAAP
WART
QETC
PSMP
SNYT
EHLF
PGYE
LAER
VSQY
CYHR
VPSI
QQCC
SCGR
TYYF
GWNS
GKGC
VKGK
TSCL
TSTQ
QMVA
CAGI
SWHS
WSQP
AGTD
RSPP
QLNN
FLMG
AMQG
NITS
HIQC
MSRF
FAKA
RGTS
MLQA
QWRG
VSDE
DSIS
EGFS
GRVS
YQRM
RDRE

one-hybrid fitness for binding NBS DNA, 0.23:
RMRM

one-hybrid fitness for binding NBS DNA, 0.238:
RMRQ

one-hybrid fitness for binding NBS DNA, 0.385:
QLNS

one-hybrid fitness for binding NBS DNA, 0.397:
KCKR

one-hybrid fitness for binding NBS DNA, 0.45:
QAMR

one-hybrid fitness for binding NBS DNA, 0.303:
RHLS
